From ChEMBL document CHEMBL1154674, “Synthesis and evaluation of three 18F-labeled aminophenylbenzothiazoles as amyloid imaging agents” (J Med Chem, 2009)
This continues a long series; more values of the same kind are listed elsewhere. One block for each compound: values may come before it.

Experiments:
Assay type in all cases: ADME, organism-based, Macaca mulatta
[1] = Drug level in normal rhesus monkey frontal cortex assessed as standard uptake value at 81.2 MBq, iv after 145 mins by microPET; conditions: in vivo
[2] = Drug level in normal rhesus monkey thalamus assessed as standard uptake value at 81.2 MBq, iv after 10 mins by microPET; conditions: in vivo
[3] = Drug level in normal rhesus monkey cerebellum assessed as standard uptake value at 81.2 MBq, iv after 32.5 mins by microPET; conditions: in vivo
[4] = Drug level in normal rhesus monkey pons assessed as standard uptake value at 81.2 MBq, iv after 95 mins by microPET; conditions: in vivo
[5] = Drug level in normal rhesus monkey frontal cortex assessed as standard uptake value at 81.2 MBq, iv after 85 mins by microPET; conditions: in vivo
[6] = Drug level in normal rhesus monkey thalamus assessed as standard uptake value at 81.2 MBq, iv after 65 mins by microPET; conditions: in vivo
[7] = Drug level in normal rhesus monkey white matter assessed as standard uptake value at 81.2 MBq, iv after 4.5 mins by microPET; conditions: in vivo, 0.075 h
[8] = Drug level in normal rhesus monkey pons assessed as standard uptake value at 81.2 MBq, iv after 105 mins by microPET; conditions: in vivo, 1.75 h
[9] = Drug level in normal rhesus monkey parietal cortex assessed as standard uptake value at 81.2 MBq, iv after 95 mins by microPET; conditions: in vivo
[10] = Drug level in normal rhesus monkey frontal cortex assessed as standard uptake value at 81.2 MBq, iv after 115 mins by microPET; conditions: in vivo
[11] = Drug level in normal rhesus monkey white matter assessed as standard uptake value at 81.2 MBq, iv after 22.5 mins by microPET; conditions: in vivo, 0.375 h
[12] = Drug level in normal rhesus monkey thalamus assessed as standard uptake value at 81.2 MBq, iv after 14 mins by microPET; conditions: in vivo
[13] = Drug level in normal rhesus monkey white matter assessed as standard uptake value at 96.3 MBq, iv after 145 mins by microPET; conditions: in vivo
[14] = Drug level in normal rhesus monkey frontal cortex assessed as standard uptake value at 96.3 MBq, iv after 85 mins by microPET; conditions: in vivo
[15] = Drug level in normal rhesus monkey frontal cortex assessed as standard uptake value at 96.3 MBq, iv after 27.5 mins by microPET; conditions: in vivo
[16] = Drug level in normal rhesus monkey cerebellum assessed as standard uptake value at 96.3 MBq, iv after 37.5 mins by microPET; conditions: in vivo, 0.625 h
[17] = Drug level in normal rhesus monkey cerebellum assessed as standard uptake value at 96.3 MBq, iv after 3.5 mins by microPET; conditions: in vivo
[18] = Drug level in normal rhesus monkey parietal cortex assessed as standard uptake value at 96.3 MBq, iv after 12 mins by microPET; conditions: in vivo, 0.2 h
[19] = Drug level in normal rhesus monkey frontal cortex assessed as standard uptake value at 96.3 MBq, iv after 75 mins by microPET; conditions: in vivo, 1.25 h
[20] = Drug level in normal rhesus monkey parietal cortex assessed as standard uptake value at 96.3 MBq, iv after 14 mins by microPET; conditions: in vivo
[21] = Drug level in normal rhesus monkey thalamus assessed as standard uptake value at 96.3 MBq, iv after 8 mins by microPET; conditions: in vivo
[22] = Drug level in normal rhesus monkey pons assessed as standard uptake value at 96.3 MBq, iv after 14 mins by microPET; conditions: in vivo
[23] = Drug level in normal rhesus monkey pons assessed as standard uptake value at 96.3 MBq, iv after 37.5 mins by microPET; conditions: in vivo, 0.625 h
[24] = Drug level in normal rhesus monkey white matter assessed as standard uptake value at 96.3 MBq, iv after 14 mins by microPET; conditions: in vivo
[25] = Drug level in normal rhesus monkey cerebellum assessed as standard uptake value at 96.3 MBq, iv after 75 mins by microPET; conditions: in vivo, 1.25 h
[26] = Drug level in normal rhesus monkey cerebellum assessed as standard uptake value at 96.3 MBq, iv after 155 mins by microPET; conditions: in vivo
[27] = Drug level in normal rhesus monkey frontal cortex assessed as standard uptake value at 96.3 MBq, iv after 47.5 mins by microPET; conditions: in vivo
[28] = Drug level in normal rhesus monkey pons assessed as standard uptake value at 96.3 MBq, iv after 165 mins by microPET; conditions: in vivo, 2.75 h
[29] = Drug level in normal rhesus monkey white matter assessed as standard uptake value at 96.3 MBq, iv after 1.5 mins by microPET; conditions: in vivo, 0.025 h
[30] = Drug level in normal rhesus monkey thalamus assessed as standard uptake value at 96.3 MBq, iv after 145 mins by microPET; conditions: in vivo
[31] = Drug level in normal rhesus monkey cerebellum assessed as standard uptake value at 96.3 MBq, iv after 175 mins by microPET; conditions: in vivo
[32] = Drug level in normal rhesus monkey pons assessed as standard uptake value at 96.3 MBq, iv after 52.5 mins by microPET; conditions: in vivo, 0.875 h
[33] = Drug level in normal rhesus monkey parietal cortex assessed as standard uptake value at 109.4 MBq, iv after 105 mins by microPET; conditions: in vivo, 1.75 h
[34] = Drug level in normal rhesus monkey white matter assessed as standard uptake value at 109.4 MBq, iv after 15.5 mins by microPET; conditions: in vivo
[35] = Drug level in normal rhesus monkey white matter assessed as standard uptake value at 109.4 MBq, iv after 0.625 mins by microPET; conditions: in vivo, 38 s
[36] = Drug level in normal rhesus monkey pons assessed as standard uptake value at 109.4 MBq, iv after 0.625 mins by microPET; conditions: in vivo, 38 s
[37] = Drug level in normal rhesus monkey white matter assessed as standard uptake value at 109.4 MBq, iv after 81 mins by microPET; conditions: in vivo, 1.35 h
[38] = Drug level in normal rhesus monkey frontal cortex assessed as standard uptake value at 109.4 MBq, iv after 87 mins by microPET; conditions: in vivo, 1.45 h
[39] = Drug level in normal rhesus monkey white matter assessed as standard uptake value at 109.4 MBq, iv after 63 mins by microPET; conditions: in vivo, 1.05 h
[40] = Drug level in normal rhesus monkey parietal cortex assessed as standard uptake value at 109.4 MBq, iv after 0.125 mins by microPET; conditions: in vivo, 7 s
[41] = Drug level in normal rhesus monkey parietal cortex assessed as standard uptake value at 109.4 MBq, iv after 93 mins by microPET; conditions: in vivo, 1.55 h
[42] = Drug level in normal rhesus monkey parietal cortex assessed as standard uptake value at 109.4 MBq, iv after 0.875 mins by microPET; conditions: in vivo, 52 s
[43] = Drug level in normal rhesus monkey white matter assessed as standard uptake value at 109.4 MBq, iv after 0.125 mins by microPET; conditions: in vivo, 7 s
[44] = Drug level in normal rhesus monkey white matter assessed as standard uptake value at 109.4 MBq, iv after 93 mins by microPET; conditions: in vivo, 1.55 h

SUV [1]: 4.488
SUV [2]: 4.593
SUV [3]: 2.442
SUV [4]: 5.269
SUV [5]: 4.885
SUV [6]: 5.637
SUV [7]: 2.875
SUV [8]: 5.55
SUV [9]: 2.875
SUV [10]: 4.66
SUV [11]: 3.763
SUV [12]: 4.764
SMILES: CNc1ccc2nc(-c3ccc([18F])cc3)sc2c1

SUV [13]: 1.63
SUV [14]: 1.72
SUV [15]: 2.07
SUV [16]: 1.46
SUV [17]: 1.55
SUV [18]: 2.21
SUV [19]: 1.76
SUV [20]: 2.18
SUV [21]: 2.13
SUV [22]: 1.52
SUV [23]: 1.75
SUV [24]: 1.19
SUV [25]: 1.09
SUV [26]: 0.83
SUV [27]: 1.95
SUV [28]: 1.91
SUV [29]: 0.79
SUV [30]: 1.88
SUV [31]: 0.77
SUV [32]: 1.75
SMILES: CN(C)c1ccc2nc(-c3ccc([18F])cc3)sc2c1

SUV [33]: 3.68
SUV [34]: 2.92
SUV [35]: 0.57
SUV [36]: 1.27
SUV [37]: 3.62
SUV [38]: 4.32
SUV [39]: 3.51
SUV [40]: 0.01
SUV [41]: 3.75
SUV [42]: 2.58
SUV [43]: 0
SUV [44]: 3.7
SMILES: Nc1ccc2nc(-c3ccc([18F])cc3)sc2c1
